Among all 150,000 compounds or so, about 540 (0.36%) showed an effect of 50% or more. The list shows a part of the results.

The subject of this test is Plasmodium falciparum. Briefly: Primary screen in NF54 nanoGlo assay, in single point, at 2uM, 72h; a lower Z score goes with more inhibition. The class given is functional, Erythrocyte. Conditions: timepoint 72 hour.
As to `COc1cc(CN(C)C(=O)Nc2cccc(OC)n2)sn1`, the % Inhibition (commonly the relative decrease from the control value, in per cent) is on record as -11% and the Z score was determined as 0.95.
For the compound `CCCC(=O)N[C@](C(=O)OCC)(N1CCCCC1)C(F)(F)F`, the “% Inhibition” value is given as -7% and the Z score is given as 0.84.
On the same counts, the results for `Cc1ccc(CN2CCN(CCC(C)(C)C)[C@@H]3CS(=O)(=O)C[C@@H]32)o1` are -10% and 1.35.
For `O=C(CC1CCN(C(=O)c2nnc(C(=O)Nc3ccccc3)s2)CC1)NCc1cccnc1`, in that order: -16% and 1.41.
Consider `N#Cc1cc(Cn2nnnc2-c2ccncc2)ccc1F`, for which the “% Inhibition” value is -10% and the Z score is 1.54.
On the same counts, the results for `Cc1cccc(NC(=O)N2CCCCC[C@@H]2CN2CCCC2)c1` are -10% and 1.53.
Take `Cc1ccc(-c2cnn([C@@H](C)C(=O)Nc3ccc(F)cc3C)c(=O)n2)cc1`: the “% Inhibition” value is listed as -11% and the Z score was found to be 1.81.
For `COC(=O)[C@H](CN)Oc1ccc(F)cc1`, in that order: 2% and -0.27.
On the same counts, the results for `Fc1ccc(CNc2cccc3nonc23)cc1Cl` are -12% and 1.34.
For `CC1(C)c2[nH]c3ccccc3c2C[C@H]2C(=O)N(C3CCCC3)CC(=O)N21`, in that order: 4% and -0.54.
Regarding `CCC(CC)NC(=O)Cc1cccs1`, the “% Inhibition” value was -9% and the Z score turned out to be 1.72.
For `CS(=O)(=O)N1CCC[C@H](Cn2nnc(-c3ccccc3)n2)C1`, in that order: -1% and 0.12.
For `CS(=O)(=O)c1ccc(S(N)(=O)=O)cc1`, in that order: -14% and 1.3.
On the same counts, the results for `CC[C@@H](c1nnc(COc2cc(C)cc(C)c2)o1)N1CCCC1=O` are -8% and 1.48.
With `Cc1cc(C)c(CNC(=O)c2cccnc2)c(=O)[nH]1`, the “% Inhibition” value is -12% and the Z score worked out at 1.88.
For `N#CCCN(CC(F)(F)F)C(=O)[C@@H]1CCOc2ccc(Cl)cc21`, in that order: -19% and 2.56.
On the same counts, the results for `Cc1nc(N[C@H]2CC2(C)C)cc2nncn12` are 17% and -2.19.
On to `CC1(C)NC(=O)N(CNc2ccc(F)cc2)C1=O`, for which the “% Inhibition” value is recorded as -43% and the Z score is 5.06.
On the same counts, the results for `CCc1cccc(NC(=O)Cn2c(=O)n(Cc3cccc(Cl)c3)c(=O)c3ccccc32)c1` are 29% and -3.96.
On the same counts, the results for `COc1ncc(C(=O)N(CCO)Cc2ccc(C)s2)cn1` are -6% and 0.74.
For `Cc1nc(N(C)C)nc(C)c1NC(=O)Nc1ccc2c(c1)OCO2`, in that order: -8% and 1.29.
`CN1CC[C@@H](c2nc(Cc3ccc(F)cn3)no2)S1(=O)=O`: the “% Inhibition” value is -4% and the Z score worked out at 0.5.
For `N#Cc1ccc(OC(F)(F)F)c(Cl)c1`, in that order: -13% and 1.66.
On the same counts, the results for `Cc1ccc(C)c(S(=O)(=O)N2CCC(F)(c3nc(CC(C)C)no3)CC2)c1` are -5% and 0.89.
On the same counts, the results for `COCC[C@]1(c2noc(C)n2)CCCN(S(=O)(=O)c2ccc(Cl)s2)C1` are -1% and 0.2.
In the case of `COCCn1cc(CN(C)CC(=O)N2CCCCCC2)ccc1=O`, the “% Inhibition” value is given as -1% and the Z score was found to be 0.25.
As to `COc1cccc(C=Cc2nc3cnccc3c(=O)[nH]2)c1`, the “% Inhibition” value is recorded as -6% and the Z score amounted to 0.74.
On the same counts, the results for `CCCOc1cccc(CN2C(=O)NC3(CCC3)C2=O)c1` are -10% and 1.93.
For `CN(C)CCN(C[C@H]1CCCO1)C(=O)c1coc2ccccc12`, in that order: 11% and -1.17.
On the same counts, the results for `NS(=O)(=O)N1CCC[C@H]1C(=O)NC1CCCCCCC1` are 2% and -0.45.
Turning to `O=C(c1csnn1)N1CCC[C@H](c2nc3ccc(F)cc3o2)C1`, the “% Inhibition” value was -15% and the Z score was found to be 2.05.
For `CN(CCCNC(=O)c1cccn(C)c1=O)c1ccccc1`, in that order: 1% and -0.15.
For `Cn1nc(C(=O)Nc2ccnn2Cc2ccc(Cl)cc2)c2ccccc2c1=O`, in that order: -5% and 0.79.
On the same counts, the results for `COc1c(N)ccnc1-c1ccc(C(=O)N[C@@H](C)CCn2cccn2)cc1` are 3% and -0.32.
Take `CCc1nc2cccnc2n1[C@H]1CCN(C(=O)NCCCOC)C1`: the “% Inhibition” value is -4% and the Z score was 0.48.
On the same counts, the results for `Cc1ccc(-c2cc(C(=O)NCC3CC3)n[nH]2)s1` are -14% and 1.37.
For `Cc1ccc(Oc2ccc(C(=O)Nc3ccc4c(c3)OCO4)cc2)nn1`, in that order: -1% and 0.2.
In the case of `c1nc(N2CC[C@]3(CCOC3)C2)c2cn[nH]c2n1`, the “% Inhibition” value was -3% and the Z score was 0.35.
For `CC(=O)c1ccc(NCCC(=O)N2CCCCCC2)nc1`, in that order: -11% and 1.87.
On the same counts, the results for `CN1CCC[C@H]1c1nc(-c2nccc3ccccc23)no1` are 4% and -0.53.
On the same counts, the results for `CC[C@H](NC1CCN(c2nnc(-c3ccccc3)s2)CC1)c1cccnc1` are 17% and -2.22.
For `Cc1nc2cc(-c3noc(-c4ccc(C(F)(F)F)cc4)n3)ccc2n(C)c1=O`, the “% Inhibition” value is -3% and the Z score worked out at 0.3.
On the same counts, the results for `CCC(C)N(Cc1cccs1)CC(O)COCC(C)C` (centres undefined) are 10% and -1.28.
On to `O=C(NCC(=O)N1CCC(C(=O)N2CCCCCC2)CC1)c1sc2ccccc2c1Cl`, for which the “% Inhibition” value is -10% and the Z score was determined as 1.2.
For `O=S(=O)(c1ccc(-c2csc(N3N=C(c4ccccc4)C[C@H]3c3ccccc3)n2)cc1)N1CCCCC1`, in that order: -2% and 0.36.
In the case of `Cc1[nH]nc(CCc2ccccc2)c1NC(=O)c1cc(F)cc(F)c1`, the “% Inhibition” value was 12% and the Z score is -1.56.
As to `COc1ccccc1[C@@H]1C=C(c2ccc(F)cc2)Nc2nnnn21`, the “% Inhibition” value is given as -5% and the Z score came out at 0.68.
For `COCc1nc(CN(C)C)n(-c2ccc(Cl)c(Cl)c2)n1`, in that order: -10% and 0.92.
On the same counts, the results for `CC(=O)c1cc(C)ccc1OS(=O)(=O)c1ccc(N2CCCC2=O)cc1` are -14% and 1.75.
On the same counts, the results for `CC(C)c1csc(-c2cc(N)ccn2)n1` are -5% and 0.97.
With `NS(=O)(=O)c1ccc(CCNC(=O)Cc2csc(Nc3ccc(Cl)cn3)n2)cc1`, the “% Inhibition” value is listed as -14% and the Z score is 2.11.
As for `CC(C)C[C@H](C)S(=O)(=O)N1CCCCC1`, the “% Inhibition” value is given as -5% and the Z score turned out to be 0.6.
On the same counts, the results for `CCn1cc(C(=O)OCc2ccc(OC)nc2)cn1` are -7% and 0.95.
As to `CCN1CCn2cc(C(=O)NCc3ccc(F)cc3)nc2C1`, the “% Inhibition” value is listed as -2% and the Z score is 0.33.
On the same counts, the results for `Cc1nn(C)cc1CNc1ncccc1-c1ccccc1` are -16% and 1.82.
For `Cc1csc(CNC(=O)c2cc(=O)nc3sccn23)n1`, in that order: 5% and -0.68.
On the same counts, the results for `Cc1ccc(OCc2c(C(=O)N(C)Cc3ccsc3)c(=O)cc(C)n2CCN2CCOCC2)cc1` are -10% and 1.34.
On to `CCc1ccc(S(=O)(=O)NCc2nc3cccnc3n2Cc2ccc(C)cc2)cc1`, for which the “% Inhibition” value stood at 7% and the Z score is recorded as -1.33.
For `COCCCNC(=O)NCCc1ncc(C)n1C1CCC1`, in that order: -6% and 0.85.
On to `CO[C@@H](C(=O)N[C@H]1C[C@H](O)C1)c1ccccc1C(F)(F)F`, for which the “% Inhibition” value is given as -3% and the Z score turned out to be 0.31.
For the compound `O=C(CCc1cccc2ccccc12)NC1CCCC1`, the “% Inhibition” value is given as -2% and the Z score was 0.29.
For `CC(C)[C@@H]1CN(C(=O)C2=NN(CCO)C(=O)CC2)c2ccccc21`, in that order: 6% and -0.67.
For the compound `COc1cccc(F)c1[C@H](C)NCc1ncc(C)o1`, the “% Inhibition” value amounted to 13% and the Z score was -1.5.
On the same counts, the results for `CNC(=O)c1ccc(Cn2cc(-c3nc(C)n4ccccc34)nn2)o1` are -6% and 1.23.
Regarding `Cc1nc(C2CC2)oc1C(=O)N[C@@H](C(C)C)C1(CO)CCCC1`, the “% Inhibition” value is -5% and the Z score was 0.87.
On the same counts, the results for `COc1ccc(CCNC(=O)N2CCN(c3cccc(C)c3C)CC2)cc1OC` are 1% and -0.18.
For `Cc1ncsc1CCC(=O)N[C@H]1CC[C@@H](C(=O)Nc2ccccc2)C1`, in that order: -7% and 1.09.
Turning to `Cn1cc(C(=O)C(=O)N2CCc3ccccc32)c2ccccc21`, the “% Inhibition” value is given as -6% and the Z score stood at 0.83.
For `Cn1cc(C2CCN(C(=O)c3ccc(=O)n(C)c3)CC2)cn1`, in that order: -11% and 1.37.
For `CCN(C(=O)[C@@H]1CC(F)(F)CN1C1CN(S(C)(=O)=O)C1)C(C)C`, in that order: 1% and -0.18.
For `CCCCc1noc(CN[C@H]2CC(C)(C)OC2(C)C)n1`, in that order: 2% and -0.32.
With `CCCc1ccc(S(=O)(=O)N2CCN(c3cnn4c(C5CC5)nnc4c3)CC2)cc1`, the “% Inhibition” value is -10% and the Z score stood at 1.17.
As for `O=C(Nc1ccc(Cl)cc1O)C1CC=CC1`, the “% Inhibition” value was 2% and the Z score is recorded as -0.35.
Regarding `Cn1ccc([C@H](NC(=O)c2nccnc2N)c2ccc(Cl)cc2)n1`, the “% Inhibition” value is recorded as -12% and the Z score is reported as 1.25.
As for `CC1CC(C(N)=O)c2ccccc2N1CC(=O)OC(C)(C)C` (centres undefined), the “% Inhibition” value is -4% and the Z score is given as 0.6.
Turning to `CCN(Cc1ccc(C)o1)C(=O)NC[C@@H](C(C)C)N(C)C`, the “% Inhibition” value is listed as -6% and the Z score is listed as 0.79.
For `C[C@H](Oc1ccc(-c2ccccc2)cc1)C(=O)Nc1ccc(N(C)C)nc1`, in that order: -6% and 1.06.
On the same counts, the results for `CC(C)Cc1noc(CN(C)S(=O)(=O)NCc2ccccc2)n1` are -9% and 1.08.
Consider `OC[C@@H](O)CN(CCC(F)(F)F)C1C=CCCC1` (some centres undefined), for which the “% Inhibition” value is -3% and the Z score is recorded as 0.31.
On the same counts, the results for `CCOc1ccc(NC(=O)Cn2c3cccc(Cl)c3c(=O)n2C(C)(C)C)cc1` are -1% and 0.08.
On the same counts, the results for `O=C(c1cc2cc(F)ccc2s1)N1CCC(n2ccnn2)CC1` are -23% and 2.6.
Turning to `COc1cccc(NS(=O)(=O)c2ccc3onc(C(=O)N4CCCCC4)c3c2)c1`, the “% Inhibition” value is recorded as -1% and the Z score came out at 0.16.
For `CN(C)[C@H]1CCCN(Cc2cccc(-c3ccco3)c2)C1`, in that order: -4% and 0.81.
As for `Cc1ccc(CNC(=O)c2cccc(S(=O)(=O)N[C@H]3CCOC3)c2)o1`, the “% Inhibition” value is -3% and the Z score is listed as 0.6.
For `CCn1cnc2ccc(-c3noc(Cc4cccc(OC)c4)n3)cc21`, in that order: -16% and 1.66.
On the same counts, the results for `CCc1ccc(-c2nccn2Cc2nnnn2-c2ccccc2)nc1` are 2% and -0.37.
For `CN(CC1(CO)CCCC1)c1nnc(C2CCC2)o1`, the “% Inhibition” value is 8% and the Z score was -1.45.

The values are drawn from ChEMBL document CHEMBL4888484, “Replenishing the malaria drug discovery pipeline: Screening and hit evaluation of the MMV Hit Generation Library 1 (HGL1) against asexual blood stage Plasmodium falciparum ,using a nano luciferase reporter read-out” (2022).
